# The full ranking holds about 33,000 sequences; the median of “E-score (-0.5 to 0.5)” is about -0.021, and the highest 2% start at about 0.32. This is one part of the list.
# Target: T1, Zap1 (UniProt P47043)
# T1 sequence: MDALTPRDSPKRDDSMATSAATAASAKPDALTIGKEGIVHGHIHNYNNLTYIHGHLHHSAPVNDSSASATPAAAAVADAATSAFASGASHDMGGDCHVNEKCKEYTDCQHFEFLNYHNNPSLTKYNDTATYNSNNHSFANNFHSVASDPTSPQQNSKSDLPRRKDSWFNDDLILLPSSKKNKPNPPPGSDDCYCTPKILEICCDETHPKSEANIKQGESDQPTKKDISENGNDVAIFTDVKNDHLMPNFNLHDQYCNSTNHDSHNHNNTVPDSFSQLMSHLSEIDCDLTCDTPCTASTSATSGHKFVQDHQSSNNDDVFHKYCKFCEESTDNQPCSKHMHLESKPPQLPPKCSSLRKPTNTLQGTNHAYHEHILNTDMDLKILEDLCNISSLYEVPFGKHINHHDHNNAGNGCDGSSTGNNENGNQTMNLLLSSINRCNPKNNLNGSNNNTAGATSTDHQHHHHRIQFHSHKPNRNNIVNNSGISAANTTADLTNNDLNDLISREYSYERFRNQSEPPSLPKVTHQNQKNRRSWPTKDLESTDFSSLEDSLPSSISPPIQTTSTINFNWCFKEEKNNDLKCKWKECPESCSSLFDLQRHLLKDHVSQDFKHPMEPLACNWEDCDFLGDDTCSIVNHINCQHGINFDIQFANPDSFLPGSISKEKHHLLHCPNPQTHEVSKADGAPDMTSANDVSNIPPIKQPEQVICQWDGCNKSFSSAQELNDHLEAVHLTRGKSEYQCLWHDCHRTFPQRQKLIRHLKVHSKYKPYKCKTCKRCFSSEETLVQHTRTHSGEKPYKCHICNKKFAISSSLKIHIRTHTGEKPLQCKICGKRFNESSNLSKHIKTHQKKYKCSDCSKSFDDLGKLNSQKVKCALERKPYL
# Experiment: PBM E-score (8-mer binding enrichment) (E-score (-0.5 to 0.5)); higher = stronger / more preferred TF binding; most listed sequences are background and not binding sites
# Conditions: protein concentration: 200 nM; construct: GST-full length
# How it was run: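 Yeast transcription factors, full-length or as DNA-binding domains, were expressed with a GST tag using PURExpress in vitro transcription/translation. At about 100-200 nM they were applied to universal all-10-mer Agilent arrays, double-stranded by primer extension on fresh or once-stripped slides. Fluorescent anti-GST detected bound protein, and masliner normalised the scans. E-scores for ungapped eight-base words, pooled with reverse complements, came from the Universal PBM Analysis Suite.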
row,Sequence,PBM E-score
1,TCAGTCAA,-0.113
2,GATTGCGC,-0.0295
3,CAGGGCGC,-0.123
4,GGCGACAA,-0.093
5,ACAGCCAA,0.108
6,CGCGGAAC,0.27
7,ACAAGGGC,-0.137
8,CCCTAAGG,0.402
9,AGTGTAAG,-0.0417
10,AGCGGAGA,-0.193
11,ATTTTGGC,0.045
12,ACTTTAAC,0.0891
13,ACTGGTTA,0.405
14,ACAGGCCA,0.0818
15,ATATCCCA,-0.00035
16,CGTCAATC,0.00182
17,CAGTTGTA,0.00516
18,AGAAGTAG,-0.123
19,ACTCAAGG,0.115
20,TACCCCGA,0.34
21,GTACAAAA,0.272
22,ATTTCACC,0.0916

row,Sequence,PBM E-score
1,CAACGTTC,-0.269
2,CTTTCCTA,-0.13
3,AGGTTGGA,0.161
4,CTGTTGAA,0.0925
5,ATCGTGTG,-0.037
6,GCCGGAAC,0.0756
7,ATAGTTCA,-0.0275
8,ATAATGCA,0.0571
9,AATCCCGA,0.0192
10,ACATTTCA,0.0346
11,AGTTGCAT,-0.00701
12,ACACCCGG,-0.00501
13,ACAGCAAA,0.051
14,CGTGGAAA,0.219
15,CGCAGCAC,-0.156
16,AGAGCATA,-0.14
17,AATATGGG,-0.0678
18,ACATACAT,0.0505
19,CTTGCTCA,-0.0505
20,ATTCTTGC,-0.0426
21,GCTCGGAC,-0.283
22,CGTCTGCC,-0.141

row,Sequence,PBM E-score
1,GTCCACAC,0.0196
2,GATATATC,0.151
3,ACTGAGTA,-0.153
4,CTGGAATA,0.033
5,AAGACCAG,0.0216
6,AACTACGC,0.0295
7,GAGCGCCA,-0.291
8,CGTTTAGA,-0.0461
9,CACGTTGG,-0.0452
10,GTAGCAAC,-0.0913
11,CACCGCAG,-0.0118
12,ACGGCGCG,-0.0597
13,CGTCGACC,-0.0268
14,ATAGCCGC,-0.114
15,ACTCCATA,-0.0866
16,AACAGGCA,-0.235
17,GTCACCCA,0.0481
18,CTTACACA,0.0775
19,ATACGGAC,-0.159
20,ATATCGAA,0.0482
21,AAGAAAAC,0.189
22,ACGATCTC,-0.0656

row,Sequence,PBM E-score
1,AAGGTTCT,0.327
2,CCTGGTTC,0.103
3,CTATGTCC,-0.157
4,ACCCACAG,0.2
5,CAGAAATC,0.0234
6,CAGACGTC,-0.276
7,CGCGAATA,0.101
8,CCGTGAAC,-0.0502
9,CGATTTTA,0.0299
10,CAGCGGGA,-0.137
11,AGATCGAT,-0.0763
12,ACGATTTC,0.0069
13,AGAAAATC,0.0273
14,ACACACCG,-0.0413
15,ATCAAGTC,-0.101
16,AGTCTCTG,-0.19
17,ACCCTAAA,0.416
18,TATTAGAA,0.159
19,GCCGCAAA,0.0664
20,AGGAAAAA,0.043
21,CCCATGGG,0.273
22,ACCATGGG,0.126

row,Sequence,PBM E-score
1,GCAGGTAC,0.198
2,GTATACTA,0.108
3,TCAAGAAA,0.264
4,AATACCTA,0.212
5,CGTAATGC,-0.0847
6,AGAAGCAT,-0.0953
7,ATGCTACC,0.179
8,CGCTACAG,-0.0949
9,AAAGCGAT,-0.107
10,CAAGACGC,-0.11
11,GGAAAAAA,0.0521
12,ATTCGATA,-0.00617
13,TCCGGTAA,0.109
14,GAGAAAAA,0.148
15,CACCAAGG,0.00411
16,AGGCGGAT,-0.171
17,GCGGTGGA,-0.0833
18,CCTTACTC,0.0743
19,ATTGCGAC,0.204
20,CACTTCTC,-0.0883
21,CTCCCGAG,-0.223
22,CGGCTGAG,-0.215

# Source: the supplement of paper PMC3334620
